Data reported in the supplement of paper PMC9542798.

Assays:
Experiment in all cases: minimum inhibitory concentration
Kanamycin = compound: NC[C@H]1O[C@H](O[C@H]2[C@H](O)[C@@H](O[C@H]3O[C@H](CO)[C@@H](O)[C@H](N)[C@H]3O)[C@H](N)C[C@@H]2N)[C@H](O)[C@@H](O)[C@@H]1O [Kanamycin]
Description: (§1)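 Broth microdilution MIC per ISO 10932 on precoated VetMIC Lact-1 plates (tylosin, vancomycin and ampicillin plates prepared manually) against lactic acid bacteria and bifidobacteria isolates. Plates were read visually after 48 h anaerobic incubation (bifidobacteria 72 h; enterococci and staphylococci 24 h aerobic) at species-specific temperatures of 30 or 37 °C. Values prefixed with < or > are outside the tested dilution range.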

Erythromycin = compound: CC[C@H]1OC(=O)[C@H](C)[C@@H](O[C@H]2C[C@@](C)(OC)[C@@H](O)[C@H](C)O2)[C@H](C)[C@@H](O[C@@H]2O[C@H](C)C[C@H](N(C)C)[C@H]2O)[C@](C)(O)C[C@@H](C)C(=O)[C@H](C)[C@@H](O)[C@]1(C)O [Erythromycin]
Description: as §1

Tetracycline = compound: CN(C)[C@@H]1C(O)=C(C(N)=O)C(=O)[C@@]2(O)C(O)=C3C(=O)c4c(O)cccc4[C@@](C)(O)[C@H]3C[C@@H]12 [Tetracycline]
Description: as §1

Chloramphenicol = compound: O=C(N[C@H](CO)[C@H](O)c1ccc([N+](=O)[O-])cc1)C(Cl)Cl [Chloramphenicol]
Description: as §1

Clindamycin = compound: CCC[C@@H]1C[C@@H](C(=O)N[C@@H]([C@H]2O[C@H](SC)[C@H](O)[C@@H](O)[C@H]2O)[C@H](C)Cl)N(C)C1 [Clindamycin]
Description: as §1

Neomycin = compound: NC[C@@H]1O[C@H](O[C@H]2[C@@H](O)[C@H](O[C@@H]3[C@@H](O)[C@H](N)C[C@H](N)[C@H]3O[C@H]3O[C@H](CN)[C@@H](O)[C@H](O)[C@H]3N)O[C@@H]2CO)[C@H](N)[C@@H](O)[C@@H]1O [Neomycin]
Description: as §1

Ampicillin = compound: CC1(C)S[C@@H]2[C@H](NC(=O)[C@H](N)c3ccccc3)C(=O)N2[C@H]1C(=O)O [Ampicillin]
Description: as §1

Streptomycin = compound: CN[C@@H]1[C@H](O[C@H]2[C@H](O[C@H]3[C@H](O)[C@@H](O)[C@H](N=C(N)N)[C@@H](O)[C@@H]3N=C(N)N)O[C@@H](C)[C@]2(O)C=O)O[C@@H](CO)[C@H](O)[C@H]1O [Streptomycin]
Description: as §1

Gentamicin = compound: CNC(C)C1CCC(N)C(OC2C(N)CC(N)C(OC3OCC(C)(O)C(NC)C3O)C2O)O1 [Gentamicin]
Description: as §1
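Also: isolates derived from commercial starter, protective, probiotic or feed-additive cultures, from fermented products, from human gut mucosa or feces, and from human milk or colostrum.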

| Test System | minimum inhibitory concentration (Kanamycin) [µg/mL] | minimum inhibitory concentration (Erythromycin) [µg/mL] | minimum inhibitory concentration (Tetracycline) [µg/mL] | minimum inhibitory concentration (Chloramphenicol) [µg/mL] | minimum inhibitory concentration (Clindamycin) [µg/mL] | minimum inhibitory concentration (Neomycin) [µg/mL] | minimum inhibitory concentration (Ampicillin) [µg/mL] | minimum inhibitory concentration (Streptomycin) [µg/mL] | minimum inhibitory concentration (Gentamicin) [µg/mL] |
| --- | --- | --- | --- | --- | --- | --- | --- | --- | --- |
| Leuconostoc mesenteroides IM1345 (strain group: non-starter strains) | 64 | 0.12 | 0.5 | 2 | 0.12 | 8 | 2 | 32 | 4 |
| Lactiplantibacillus plantarum IM1291 (strain group: non-starter strains) | 64 | 1 | 16 | 8 | 0.06 | 2 | 0.5 | 32 | 4 |
| Lacticaseibacillus paracasei IM836 (strain group: probiotic strains) | 256 | 0.25 | 1 | 4 | 0.25 | 32 | 2 | 64 | 16 |
| Lactiplantibacillus plantarum IM1162 (strain group: non-starter strains) | 128 | 0.5 | 16 | 8 | 2 | 4 | 2 | 64 | 4 |
| Lacticaseibacillus paracasei IM579 (strain group: probiotic strains) | 128 | 0.25 | 2 | 4 | 0.25 | 32 | 1 | 16 | 16 |
| Lacticaseibacillus rhamnosus IM700 (strain group: human intestinal mucosa or faeces) | 64 | 0.25 | 1 | 4 | 1 | 32 | 1 | 16 | 8 |
| Limosilactobacillus fermentum IM916 (strain group: human milk or colostrum) | 64 | 0.25 | 4 | 4 | 0.06 | 2 | 2 | 32 | 2 |
| Limosilactobacillus fermentum IM710 (strain group: human milk or colostrum) | 128 | 0.25 | 8 | 4 | 0.06 | 2 | 0.5 | 32 | 2 |
| Lactiplantibacillus paraplantarum IM1364 (strain group: non-starter strains) | 128 | 1 | 16 | 8 | 8 | 2 | 0.5 | 32 | 2 |
| Lactiplantibacillus plantarum IM1296 (strain group: non-starter strains) | 32 | 0.25 | 16 | 8 | 2 | 2 | 0.25 | 16 | 4 |
| Lactiplantibacillus plantarum IM1154 (strain group: non-starter strains) | 256 | 0.5 | 16 | 8 | 1 | 8 | 1 | 128 | 8 |
| Leuconostoc citreum IM1322 (strain group: non-starter strains) | 32 | 1 | 2 | 8 | 0.12 | 4 | 0.5 | 32 | 2 |
| Lacticaseibacillus paracasei IM692 (strain group: human intestinal mucosa or faeces) | 32 | 0.25 | 2 | 4 | 0.12 | 4 | 1 | 16 | 2 |
| Lacticaseibacillus paracasei IM1282 (strain group: non-starter strains) | 64 | 0.12 | 1 | 4 | 0.25 | 4 | 1 | 32 | 2 |
| Lacticaseibacillus paracasei IM1080 (strain group: non-starter strains) | 16 | 0.12 | 1 | 4 | 0.25 | 1 | 2 | 8 | 1 |
| Lacticaseibacillus casei IM573 (strain group: probiotic strains) | 128 | 1 | 2 | 8 | 1 | 16 | 2 | 32 | 8 |
| Lacticaseibacillus paracasei IM1298 (strain group: non-starter strains) | 64 | 0.25 | 1 | 8 | 0.25 | 8 | 4 | 16 | 4 |
| Leuconostoc mesenteroides IM1327 (strain group: non-starter strains) | 128 | 1 | 2 | 8 | 0.5 | 2 | 2 | 64 | 4 |
| Lacticaseibacillus casei IM1107 (strain group: non-starter strains) | 32 | 0.12 | 1 | 4 | 0.06 | 4 | 1 | 16 | 2 |

| Test System | minimum inhibitory concentration (Kanamycin) [µg/mL] | minimum inhibitory concentration (Erythromycin) [µg/mL] | minimum inhibitory concentration (Tetracycline) [µg/mL] | minimum inhibitory concentration (Chloramphenicol) [µg/mL] | minimum inhibitory concentration (Clindamycin) [µg/mL] | minimum inhibitory concentration (Neomycin) [µg/mL] | minimum inhibitory concentration (Ampicillin) [µg/mL] | minimum inhibitory concentration (Streptomycin) [µg/mL] | minimum inhibitory concentration (Gentamicin) [µg/mL] |
| --- | --- | --- | --- | --- | --- | --- | --- | --- | --- |
| Lacticaseibacillus rhamnosus IM654 (strain group: human intestinal mucosa or faeces) | 128 | 0.25 | 1 | 8 | 1 | 64 | 1 | 16 | 8 |
| Lactiplantibacillus plantarum IM1344 (strain group: non-starter strains) | 128 | 1 | 16 | 8 | 4 | 8 | 0.25 | 64 | 2 |
| Lacticaseibacillus paracasei IM1036 (strain group: non-starter strains) | 32 | 0.12 | 1 | 4 | 0.12 | 4 | 0.5 | 16 | 2 |
| Latilactobacillus curvatus IM1363 (strain group: non-starter strains) | 32 | 0.5 | 1 | 2 | 0.12 | 8 | 2 | 64 | 8 |
| Limosilactobacillus fermentum IM867 (strain group: human milk or colostrum) | 64 | 0.25 | 8 | 8 | 0.06 | 2 | 0.5 | 32 | 2 |
| Pediococcus pentosaceus IM1061 (strain group: non-starter strains) | 256 | 0.5 | 32 | 4 | 0.06 | 8 | 4 | 128 | 8 |
| Lacticaseibacillus rhamnosus IM1287 (strain group: non-starter strains) | 64 | 0.25 | 1 | 4 | 0.5 | 16 | 1 | 8 | 4 |
| Lactiplantibacillus plantarum IM1040 (strain group: non-starter strains) | 64 | 0.12 | 0.5 | 4 | 0.12 | 8 | 1 | 32 | 4 |
| Lactiplantibacillus plantarum IM1157 (strain group: non-starter strains) | 256 | 0.5 | 16 | 4 | 1 | 8 | 2 | 128 | 8 |
| Lactiplantibacillus plantarum IM1153 (strain group: non-starter strains) | 256 | 0.5 | 16 | 8 | 2 | 16 | 1 | 256 | 8 |
| Leuconostoc mesenteroides IM1362 (strain group: non-starter strains) | 8 | 0.25 | 2 | 8 | 0.06 | < 0.5 | 1 | 4 | < 0.5 |
| Limosilactobacillus fermentum IM850 (strain group: human milk or colostrum) | 64 | 0.25 | 4 | 4 | 0.06 | 1 | 1 | 32 | 1 |
| Lactiplantibacillus plantarum IM1164 (strain group: non-starter strains) | 256 | 0.5 | 16 | 8 | 2 | 16 | 1 | 64 | 8 |
| Lacticaseibacillus paracasei IM1354 (strain group: non-starter strains) | 64 | 0.25 | 1 | 4 | 0.25 | 8 | 2 | 16 | 4 |
| Limosilactobacillus fermentum IM846 (strain group: human milk or colostrum) | 64 | 0.25 | 4 | 8 | 0.06 | 4 | 1 | 32 | 2 |
| Lacticaseibacillus rhamnosus IM924 (strain group: human milk or colostrum) | 64 | 0.25 | 1 | 4 | 1 | 8 | 4 | 16 | 4 |
| Lactiplantibacillus plantarum IM1288 (strain group: non-starter strains) | 256 | 0.5 | 32 | 16 | 0.06 | 32 | 1 | 64 | 8 |
| Lacticaseibacillus rhamnosus IM1145 (strain group: non-starter strains) | 64 | 0.25 | 1 | 16 | 1 | 4 | 4 | 8 | 2 |
